# Experimental data reported in PubChem BioAssay AID504333 (National Center for Advancing Translational Sciences (NCATS), 2011).
# Where “and” joins values, the source holds several entries; their conditions need not be identical. Equal entries are not always repeated. In all, about 360,000 compounds went through this assay and about 16,000 (4.4%) were called active. Inconclusive means that the source gave no clear call. Such entries were picked first, then a sample of the others. Calls come from the whole dose curve; as a rule, active = well fitted inhibition curve with a large enough effect; inconclusive = small, poorly fitted or top-dose-only effect; inactive = no such curve, though single readings can be large or run the other way. Potencies beside an inconclusive call are fits to weak or partial responses and may not hold up.
# Biological target: Bromodomain adjacent to zinc finger domain protein 2B (Homo sapiens) (UniProt Q9UIF8)
# UniProt Q9UIF8, sequence (Q9UIF8 whole entry, looked up, the tested form may be a part): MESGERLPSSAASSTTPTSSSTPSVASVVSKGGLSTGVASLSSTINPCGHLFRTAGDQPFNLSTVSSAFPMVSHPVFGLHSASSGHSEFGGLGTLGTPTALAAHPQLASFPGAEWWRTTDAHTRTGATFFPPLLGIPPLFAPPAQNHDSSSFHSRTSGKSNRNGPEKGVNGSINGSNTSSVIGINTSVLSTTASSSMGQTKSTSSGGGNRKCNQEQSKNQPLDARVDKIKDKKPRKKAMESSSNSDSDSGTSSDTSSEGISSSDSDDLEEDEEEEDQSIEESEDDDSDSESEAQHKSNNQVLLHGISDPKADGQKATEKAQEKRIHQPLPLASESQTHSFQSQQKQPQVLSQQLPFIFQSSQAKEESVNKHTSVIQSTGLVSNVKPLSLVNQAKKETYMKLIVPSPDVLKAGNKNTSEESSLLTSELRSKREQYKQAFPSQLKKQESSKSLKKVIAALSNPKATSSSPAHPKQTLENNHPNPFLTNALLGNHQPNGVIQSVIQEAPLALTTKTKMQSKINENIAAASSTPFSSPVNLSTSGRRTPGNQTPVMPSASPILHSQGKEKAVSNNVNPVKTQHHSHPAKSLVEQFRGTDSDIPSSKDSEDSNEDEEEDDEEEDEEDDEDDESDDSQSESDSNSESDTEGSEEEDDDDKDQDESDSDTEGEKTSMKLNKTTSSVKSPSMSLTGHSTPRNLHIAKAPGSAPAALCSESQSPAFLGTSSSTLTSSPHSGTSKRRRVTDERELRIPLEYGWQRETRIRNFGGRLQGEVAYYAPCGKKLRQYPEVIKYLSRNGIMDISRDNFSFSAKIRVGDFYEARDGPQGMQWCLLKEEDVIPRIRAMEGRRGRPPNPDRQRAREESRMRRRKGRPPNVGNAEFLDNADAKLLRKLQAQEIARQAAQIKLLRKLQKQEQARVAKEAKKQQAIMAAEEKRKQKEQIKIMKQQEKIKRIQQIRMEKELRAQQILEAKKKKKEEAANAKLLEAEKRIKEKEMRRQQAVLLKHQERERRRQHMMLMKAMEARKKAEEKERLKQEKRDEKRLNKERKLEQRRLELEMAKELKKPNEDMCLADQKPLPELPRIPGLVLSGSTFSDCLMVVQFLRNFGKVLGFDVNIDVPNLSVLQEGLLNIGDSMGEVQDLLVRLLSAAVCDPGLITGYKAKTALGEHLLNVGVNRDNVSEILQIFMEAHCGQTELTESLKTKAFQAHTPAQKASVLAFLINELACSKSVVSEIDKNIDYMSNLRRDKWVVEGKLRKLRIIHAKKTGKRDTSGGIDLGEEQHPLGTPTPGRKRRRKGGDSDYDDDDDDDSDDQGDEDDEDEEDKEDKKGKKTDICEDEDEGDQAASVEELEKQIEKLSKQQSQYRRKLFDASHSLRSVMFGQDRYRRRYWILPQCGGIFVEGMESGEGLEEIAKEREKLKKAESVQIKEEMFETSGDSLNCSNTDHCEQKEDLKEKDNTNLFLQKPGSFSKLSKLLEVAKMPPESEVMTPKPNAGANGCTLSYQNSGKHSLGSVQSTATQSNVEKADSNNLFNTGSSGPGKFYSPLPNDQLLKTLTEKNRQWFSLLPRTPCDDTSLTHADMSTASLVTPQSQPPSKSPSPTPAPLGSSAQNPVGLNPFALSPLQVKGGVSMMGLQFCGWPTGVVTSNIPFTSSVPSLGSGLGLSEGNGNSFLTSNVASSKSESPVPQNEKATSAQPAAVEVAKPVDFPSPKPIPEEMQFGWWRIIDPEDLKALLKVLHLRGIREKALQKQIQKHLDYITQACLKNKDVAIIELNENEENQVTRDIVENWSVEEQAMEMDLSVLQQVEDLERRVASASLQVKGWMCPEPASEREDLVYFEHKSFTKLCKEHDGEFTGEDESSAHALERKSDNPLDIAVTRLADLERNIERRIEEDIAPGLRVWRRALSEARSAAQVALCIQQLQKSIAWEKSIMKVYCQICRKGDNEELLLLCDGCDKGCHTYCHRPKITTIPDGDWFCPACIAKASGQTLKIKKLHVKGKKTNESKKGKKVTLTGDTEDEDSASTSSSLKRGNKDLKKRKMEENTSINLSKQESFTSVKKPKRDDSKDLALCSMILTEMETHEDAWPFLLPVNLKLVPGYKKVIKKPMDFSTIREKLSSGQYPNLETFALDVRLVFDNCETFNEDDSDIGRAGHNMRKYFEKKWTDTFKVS
# Assay: qHTS Assay for Inhibitors of BAZ2B; note: nearly all actives have a fitted effect of over 60% in size
# Conditions: AlphaScreen BAZ2B-H3K14Ac peptide displacement; activity change, negative = inhibition: at 114 µM (top of the series) unless noted
# Method in brief: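 Complex of BAZ2B and biotin-H3K14Ac (50 nM apiece) forms over 30 min at RT, then faces library compounds up to 110 uM for another 30 min; AlphaScreen beads added, 20 min dark incubation, luminescence read.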
# % is set by controls: 0 for no effect and ±100 for the full control effect; potency is the fitted concentration of half-maximal effect; tags give direction and shape of the fitted curve.
SMILES,"activity change, negative = inhibition",Potency
CC1=C(C(=O)Nc2ccc(C)cc2C)C(c2ccc(O)cc2)n2nc(SCC(=O)c3ccc(C)cc3)nc2N1 (stereo not drawn),inactive: -1.96%,
Fc1ccc(NC(=S)Nc2ccc3nccnc3c2)cc1,inactive: -16.5%,
CN(CCC#N)S(=O)(=O)c1cc2c3c(c1)CCN3C(=O)CC2,inactive: -8.8%,
COc1ccc(-c2ccc(CCC(=O)O)n2-c2ccccc2O)cc1,,"inconclusive: 50.1 µM [inhibitor, partial curve] and inconclusive: 70.8 µM [inhibitor, single point]"
COC(=O)c1ccc(-n2c(CCC(=O)O)ccc2-c2ccccc2)cc1,,"inconclusive: 50.1 µM [inhibitor, partial curve]"
COc1cccc(OC)c1C(=O)Nc1cccc2c1CCCC2,inactive: 12.6%,
O=[N+]([O-])c1ccc(S(=O)(=O)N2CCN=C2SCc2ccc(F)cc2)cc1,inactive: -12.5%,
CC1CCC(C(C)C)C(OCC(O)CN2CCCC(C)C2)C1 (stereo not drawn),inactive: -15.2%,
COc1ccc(CN(C(=O)CCC(=O)Nc2cc(C)on2)C(C(=O)NC(C)(C)C)c2cccc(OC)c2OC)cc1 (stereo not drawn),,"inconclusive: 89.1 µM [inhibitor, single point]"
Cc1cc(C)cc(NC(=S)NC(=O)CCN2C(=O)c3ccccc3C2=O)c1,inactive: -8.39%,
Cc1[nH]c2ccccc2c1C(Nc1nccs1)c1ccncc1 (stereo not drawn),,"inconclusive: 44.7 µM [inhibitor, partial curve]"
O=C(O)c1cc(-c2cccnc2)nn1-c1ccccn1,,"inconclusive: 89.1 µM [inhibitor, single point]"
Cc1cc(C)cc(N2C(=O)CC(Cn3nc(C)cc3C)C2=O)c1 (stereo not drawn),inactive: -1.9%,
COc1cc2c(cc1OC)C(C)N(C(=O)c1cc3c(C)cc(C)cc3[nH]1)CC2 (stereo not drawn),,"inconclusive: 44.7 µM [inhibitor, partial curve]"
O=C(CSc1nc2ccccc2c(=O)n1-c1ccccc1)NCc1ccco1,,"inconclusive: 79.4 µM [inhibitor, partial curve]"
COc1ccc(CN(Cc2cccn2C)C(=O)c2cc3cc(OC)ccc3[nH]2)cc1,,"inconclusive: 31.6 µM [inhibitor, full curve, poor fit]"
CN(C)CC(C)(C)CNC(=S)NCc1ccc2c(c1)OCO2,,active: 44.7 µM
O=C(O)CCCN1C(=O)/C(=C\c2ccc(-c3nc4ccccc4s3)o2)SC1=S,,active: 7.94 µM
COc1ccc(Cn2ccc3nc(C)c(C(=O)N4CCN(c5ccc(OC)cc5)CC4)cc3c2=O)cc1,,"inconclusive: 50.1 µM [inhibitor, partial curve, poor fit]"
Cc1ccc(S(=O)(=O)N(C)Cc2nc(-c3ccccc3)oc2C)cc1,,"inconclusive: 35.5 µM [inhibitor, partial curve]"
COC(=O)C1=C(C(=O)OC)[C@@H]2N(C)c3ccc(OC)cc3[C@@]23C[C@@H](C(=O)OC)N(C(=O)c2ccc(Br)cc2)C3=N1,,active: 20 µM
C=CCOC(=O)C1=C(C)NC(=O)NC1c1cc2c(cc1Br)OCO2 (stereo not drawn),,"inconclusive: 89.1 µM [inhibitor, single point]"

SMILES,"activity change, negative = inhibition",Potency
O=[N+]([O-])c1ccc(NC(=S)N2CCc3ccccc32)cc1,,"inconclusive: 39.8 µM [inhibitor, partial curve]"
COc1cccc(C(=O)N(CN2CCCC2=O)c2cccc(Cl)c2)c1OC,,"inconclusive: 89.1 µM [inhibitor, single point]"
CCC(=O)N1CCN(c2ccc(NC(=S)NC(=O)c3ccc(OC)c([N+](=O)[O-])c3)cc2)CC1,,"inconclusive: 70.8 µM [inhibitor, partial curve]"
Cc1ccc(-n2cc(C(C)(C)C)[nH]c2=S)cc1,,"inconclusive: 50.1 µM [inhibitor, partial curve]"
CC(C)c1ccc(NC(=O)CSc2nc3ccccc3nc2Cc2ccccc2)cc1,inactive: 5.66%,
O=C(O/N=C\c1ccc(N2CCCCC2)c([N+](=O)[O-])c1)c1ccc(Cl)cc1Cl,,"inconclusive: 3.55 µM [inhibitor, full curve]"
COc1ccc(CCNC(=O)C2CCN(S(=O)(=O)c3cccc4cccnc34)CC2)cc1OC,,"inconclusive: 50.1 µM [inhibitor, partial curve]"
COc1ccccc1N1CCN(C(CNC(=O)C(=O)NCc2ccc(F)cc2)c2cccnc2)CC1 (stereo not drawn),,"inconclusive: 79.4 µM [inhibitor, single point]"
CCOC(=O)CC(NS(=O)(=O)c1ccc(OC)c(C)c1)c1cccc([N+](=O)[O-])c1 (stereo not drawn),,"inconclusive: 89.1 µM [inhibitor, single point]"
CCc1cccc(NC(=O)Nc2cccs2)c1,,"inconclusive: 89.1 µM [inhibitor, single point]"
CCC(C)NC(=S)NNC(=O)c1ccc(C(C)(C)C)cc1 (stereo not drawn),inactive: -5.66%,
Cc1nn(C(=O)Cn2ccc([N+](=O)[O-])n2)c(C)c1Br,,"inconclusive: 89.1 µM [inhibitor, single point]"
Cc1cccc(NNC(=S)Nc2c(C)cccc2C)c1,,active: 14.1 µM
CCOC(=O)C1=C(C)NC(C)=C(C(=O)OC)C1c1cccc([N+](=O)[O-])c1 (stereo not drawn),,"inconclusive: 44.7 µM [inhibitor, partial curve]"
Cc1cc(-n2c(C)cc(C(=O)CN3C(=O)NC4(CCCCCC4)C3=O)c2C)no1,,"inconclusive: 70.8 µM [inhibitor, single point]"
CCN(CC)S(=O)(=O)c1cccc(C(=O)Nc2sc3c(c2C#N)CCC(C)C3)c1 (stereo not drawn),inactive: -20.2%,
COc1ccc(CNCc2c(C(=O)O)c(C)n(Cc3ccccc3C)c2C)c(OC)c1,,"inconclusive: 79.4 µM [inhibitor, partial curve]"
Cc1cc2cc(CNC(=O)c3ccc(Br)o3)ccc2n1C,,active: 35.5 µM
CCc1nnc(NS(=O)(=O)c2ccc(N/C=C/C(=O)c3ccc(C)cc3)cc2)s1,,active: 50.1 µM
O=C1NN(c2cccc(Br)c2)C(=O)/C1=C/c1ccc(-c2cc([N+](=O)[O-])ccc2O)o1,,active: 2.24 µM
Cc1cc(C)cc(NC(=O)CSc2oc(-c3ccco3)nc2S(=O)(=O)c2ccc(Cl)cc2)c1,,"inconclusive: 89.1 µM [inhibitor, single point]"
